# Laboratory results: PMC6919601, “Identification of Plasmodium dipeptidyl aminopeptidase allosteric inhibitors by high throughput screening” (PLoS ONE, 2019)
# Screen size: about 110,000 compounds; about 230 (0.21%) showed an effect of 50% or more. Some of the results follow.
# Molecular target: DPAP1 (Plasmodium falciparum, UniProt Q8IIJ9)
# Assay: primary screen, percent inhibition; read by cleavage of a fluorogenic dipeptide substrate; higher = more effect of the substance
# Parameters: species or system P. falciparum D10 trophozoite lysates; single well
# 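Further: 30 min substrate incubation versus DMSO and 10 µM JCP410 controls.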
# Chain of DPAP1 (Q8IIJ9 whole entry, looked up): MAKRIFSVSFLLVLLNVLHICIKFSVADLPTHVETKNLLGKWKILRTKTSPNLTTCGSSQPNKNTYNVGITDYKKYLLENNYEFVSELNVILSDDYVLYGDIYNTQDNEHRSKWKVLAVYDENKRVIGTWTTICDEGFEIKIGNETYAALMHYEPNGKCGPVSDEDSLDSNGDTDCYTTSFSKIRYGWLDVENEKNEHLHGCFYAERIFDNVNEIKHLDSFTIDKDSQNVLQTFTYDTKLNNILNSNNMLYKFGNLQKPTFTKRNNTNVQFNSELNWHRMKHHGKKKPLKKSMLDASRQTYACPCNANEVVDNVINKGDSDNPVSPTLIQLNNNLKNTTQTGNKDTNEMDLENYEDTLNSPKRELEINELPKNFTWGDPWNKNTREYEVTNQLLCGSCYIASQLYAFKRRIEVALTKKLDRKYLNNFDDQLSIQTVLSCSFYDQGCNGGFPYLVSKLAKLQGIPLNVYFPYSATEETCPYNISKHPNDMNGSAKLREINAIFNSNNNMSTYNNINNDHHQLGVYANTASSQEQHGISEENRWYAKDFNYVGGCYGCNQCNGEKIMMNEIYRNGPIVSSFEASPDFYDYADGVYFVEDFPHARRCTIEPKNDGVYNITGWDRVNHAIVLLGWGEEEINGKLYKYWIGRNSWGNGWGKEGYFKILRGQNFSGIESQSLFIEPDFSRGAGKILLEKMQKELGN
row,SMILES,% Inhibition @ 10 uM [%]
1,Cc1ccc(C)c(OCC(=O)N(Cc2nc(-c3ccc(Cl)cc3)no2)C(C)C)c1,-6.23
2,Cc1ccc(OCCCCN2CCCC2)cc1C,-0.351
3,CC(C)=CCCC(C)CN(C)CCN(C)C (centres unmarked),-2.34
4,N#CCCOCc1cccc2ccccc12,-1.86
5,CC(C)c1ccc(NC(=O)Nc2cccc3ccccc23)cc1,1.74
6,CC(=O)C(Sc1ncnc2sc(C)c(C)c12)C(C)=O,3.54
7,O=S(=O)(Nc1ccccc1F)c1cc(Cl)ccc1Cl,2.22
8,Cc1cc(/C=C2/NC(=O)NC2=O)c(C)n1-c1ccc(C#N)cc1,5.37
9,Cc1ccc(C(=O)Nc2ccc(-c3cn4ccsc4n3)cc2)cc1,1.37
10,CC1CCc2c(sc(NC(=O)c3ccncc3)c2C(N)=O)C1 (centres unmarked),-0.725
11,CN(C)c1ccc(C2C3=C(O)CC(C)(C)CC3=Nc3nc(S)nc(N)c32)cc1 (centres unmarked),1.08
12,Cc1ccccc1CCNC(=O)c1ccc2[nH]c(C)c(C)c2c1,1.44
13,CCC(=O)NC1=NC(=O)/C(=C/c2cc3c(cc2Br)OCO3)S1,3.99
14,O=C(Nc1cccc(O)c1)c1cccc(S(=O)(=O)Nc2cccc(O)c2)c1,4.8
15,O=C1c2ccccc2C(NCCc2ccccc2)N1CCc1ccccc1 (centres unmarked),-3.74
16,Cc1ccc2nc(N(CCCN(C)C)C(=O)COc3ccccc3)sc2c1,3.48
17,COc1cc(C2C(C#N)=C(N)N(c3cccc(C)c3)C3=C2C(=O)CCC3)cc(OC)c1OC (centres unmarked),0.536
18,O=C(Cn1ncn2c(cc3cc(F)ccc32)c1=O)NC1CCCc2ccccc21 (centres unmarked),3.29
19,Cc1ccc2c(c1)c1c3n2CCN(C(C)c2ccccc2)C3CCC1 (centres unmarked),3.18
20,OCC1CCCCN1C1CCc2ccccc2C1 (centres unmarked),3.19
21,CCc1ccc(OCC(=O)Nc2ccc(S(=O)(=O)N3CCCC3)cc2)cc1,-0.185
22,COc1cc2c3c(c1OC)-c1cc(O)ccc1CC3NCC2 (centres unmarked),-3.13
23,Cc1ccnc(SC(C(=O)c2ccccc2)c2ccccc2)n1 (centres unmarked),1.62
24,CC1(C)CC(=O)C2=C(C1)NC(=O)CC2c1cccc(O)c1 (centres unmarked),-1.29
25,O=C(NC(Cc1ccccc1)C(=O)O)/C(=C\c1ccco1)NC(=O)c1ccco1 (centres unmarked),5.55
26,O=C1c2cccc3cccc(c23)N1CN1CCN(c2ccccc2F)CC1,-7.18

row,SMILES,% Inhibition @ 10 uM [%]
1,Cc1cc(NC2CCCCC2)nc(-c2ccc(Br)cc2)n1,-7.93
2,CCCc1nc(N)c(C#N)c(-c2cccs2)c1CC,2.1
3,O=C(O)CCC(=O)Nc1ccccc1C(=O)Nc1ccc(F)cc1,-0.95
4,O=C1/C(=C\c2ccc(-c3ccc(Cl)cc3Cl)o2)Sc2ccccc21,-4.01
5,CC(=O)c1cccc(NC(=O)CSc2nc(N)cc(N)n2)c1,-2.11
6,Cc1cc(O)cc2occ(-c3cnn(-c4ccccc4)c3)c(=O)c12,1.67
7,CC(=O)OC1(C(=O)/C=C/c2ccccc2)CCCCC1,-2.47
8,CC(=O)N1N=C(c2ccco2)CC1c1cccs1 (centres unmarked),0.472
9,CC(C)(C)c1[nH]nc2c1C(c1ccc(F)cc1)C(C#N)=C(N)O2 (centres unmarked),6.06
10,Cc1noc(/C=C/c2cccs2)c1S(=O)(=O)N1CCCC(C(=O)N2CCOCC2)C1 (centres unmarked),-3.44
11,COc1cc(C(=O)ON=C2C=C(C)C(=O)C(C)=C2)cc(OC)c1OC,-11.3
12,CC(C)(C)c1ccc(S(=O)(=O)NCCOCC(F)(F)C(F)F)cc1,-0.703
13,N#CC1=C(N)Oc2cc(Nc3ccccc3)ccc2C1c1ccncc1 (centres unmarked),-2.77
14,CCOc1ccc(CCNc2nc(C)cc(COC)c2C#N)cc1OCC,-0.222
15,CC(=O)Nc1nonc1-c1nc2ccccc2n1Cc1ccc(C#N)cc1,4.32
16,COc1ccccc1OCCn1c(CCNC(=O)c2ccco2)nc2ccccc21,0.486
17,CN1C(=O)/C(=C/c2cc(Br)ccc2OCC(=O)O)S/C1=N/c1cccc(C(=O)O)c1,16.8
18,CSc1ccc(/C=C/C(=O)O)cc1,-7.98
19,CCN(CC)CCCNC(=O)c1[nH]c2cc(OC)ccc2c1Sc1ccccc1,0.236
20,C=CCSc1nc2c(c(=O)n1C1CCOC(C)(C)C1)C1(CCCCC1)Cc1ccccc1-2 (centres unmarked),-0.267
21,c1ccc(CN2CCC(N3CCN(c4ncccn4)CC3)CC2)cc1,-3.27
22,CCOC(=O)c1c(C)c(C(=O)NCc2cccs2)c(C)n1CC,-1.66
23,COc1ccc2nc(-c3ccccc3)cc(C(=O)NC3CCCCC3)c2c1,-4.43
24,O=C(NC(c1ccccc1)c1ccccc1)c1ccccc1Cl,0.135
25,NC(=O)C1CCCN(C2CC(=O)N(c3ccc(Br)cc3)C2=O)C1 (centres unmarked),-3.9
26,CCN(CC)CCN(C(=O)c1ccco1)c1nc2c(C)cc(C)cc2s1,4.2

row,SMILES,% Inhibition @ 10 uM [%]
1,CCOC(=O)c1ccc(-c2ccc(/C=C3\C(=N)N4N=C(N5CCCC5)SC4=NC3=O)o2)cc1,-3.44
2,COc1ccc(CNC(=O)c2cnn3c2NC(c2cccs2)CC3C(F)(F)F)cc1 (centres unmarked),-4.4
3,COc1cc(OC)c(/C=C2/SC(Nc3ccc(C)cc3)=NC2=O)c(OC)c1,1.64
4,Cc1cccc(C)c1NC(=O)CC(=O)c1ccccc1,2.76
5,CCOc1cc(C(=O)N2CCN(c3ccc(F)cc3)CC2)cc(OCC)c1OCC,0.812
6,O=C(NC1CC1)c1ccc(COc2ccc3c(c2)CCC3)o1,6.79
7,Cc1ccc(NC(=O)c2ccc([N+](=O)[O-])cc2)c(C)c1,3
8,Cc1c(-c2c(C#N)c(N)nc3c2CCCCCC3)cnn1C,2.42
9,Cc1ccc(S(=O)(=O)Nc2ccccc2C(C)(C)C)cc1,4.88
10,N#CC1=C(N)Oc2cc(O)ccc2C1c1ccccc1Cl (centres unmarked),-0.197
11,Cc1cc(Cl)n2nc(C)c(-c3ccc(Cl)cc3)c2n1,6.43
12,O=C(CSc1nnc(COc2ccccc2)o1)NCc1ccccc1,-4.51
13,CCN(CC)S(=O)(=O)c1ccc(NC(=O)COc2ccc(Cl)cc2C)cc1,-0.511
14,O=C1C2CC=C(Cl)CC2C(=O)N1CNc1cc(Cl)ccc1Cl (centres unmarked),-0.68
15,COc1ccc(S(=O)(=O)NCC2CCC(C(=O)NCCCN3CCCC3=O)CC2)cc1 (centres unmarked),2.35
16,CCc1ccc2oc(-c3cc(N)ccc3O)nc2c1,0.162
17,CCC(CC)C(=O)/N=C1/SC2CS(=O)(=O)CC2N1Cc1ccccc1Cl (centres unmarked),-1.15
18,Cc1ccc2c(c1)c1c(n2CCN2C(=O)c3ccccc3C2=O)C(=O)CCC1,2.66
19,CCOc1ccc(CC(=O)C2=C(NCc3ccccc3)CC(C)(C)CC2=O)cc1OCC,-2.63
20,CCCCc1c(O)c2ccccc2n(CCCC)c1=O,7.33
21,CCC[C@H](NC(=O)[C@@H](NC(=O)c1ccc(-c2ccccc2Cl)c(Cl)c1)C1CCCCC1)C(=O)c1nnc(CC)o1,4.33
22,COc1cccc(/C=N/n2c(S)nnc2-c2ccccc2)c1,1.13
23,O=C(CN1C(=O)S/C(=C\C=C\c2ccccc2)C1=O)N1CCCCC1,-6.08
24,CCc1nnc(N2CCN(c3ncnc4c3oc3ccccc34)CC2)s1,-3.53
25,C#CCOc1c(/C=C2/SC(=O)NC2=O)cc(Br)cc1OC,-3.04
26,COc1cccc(NC(=O)c2ccc3c(c2)C(=O)N(C2CCCCC2)C3=O)c1,-12.7

row,SMILES,% Inhibition @ 10 uM [%]
1,COc1ccc(N2CCN(CC(O)COc3ccc(Cl)cc3)CC2)cc1 (centres unmarked),2.22
2,Cc1ccc2ncc(S(=O)(=O)c3ccccc3)c(N3CCC(C)CC3)c2c1,-5.54
3,CCc1ccc([N+]2=C3SCCCN3C(O)(c3cccs3)C2)cc1 (centres unmarked),1.91
4,O=C(Nc1ccc2c(c1)OCO2)c1ccccc1Br,2.64
5,CCOC(=O)c1ccc(NC(=O)c2ccc([N+](=O)[O-])cc2)cc1,-1.76
6,Cc1oc(-c2ccc(Cl)cc2)nc1CS(=O)CC(=O)NC1CCCc2ccccc21 (centres unmarked),-1.05
7,CCCC(=O)Nc1ccc(S(=O)(=O)N2CCCC2)cc1,-2.83
8,Cc1ccc(NS(=O)(=O)c2c(C)cc(C)cc2C)c(C)c1,2.26
9,Cc1ccc(S(=O)(=O)N(CCC#N)C2CCCCC2)cc1,3.32
10,Cc1cc(C)nc(/N=C(\N)C2=C(O)CC(C)(C)CC2=O)n1,-5.28
11,COc1ccc(Nc2nc(-c3sc(C)nc3C)cs2)cc1,5.24
12,O=C1NC(=O)N(c2cccc3ccccc23)C(=O)/C1=C\c1ccc2c(c1)OCO2,2.7
13,Cc1c(C)c2cc3c(C(C)(C)C)coc3cc2oc1=O,-2.92
14,CNc1nc2c(c(=O)[nH]c(=O)n2C)n1CCCc1ccccc1,-3.83
15,CC(C)c1ccc(NC(=O)c2ccncc2)cc1,0.812
16,Cc1ccc(N2C(=O)NC(=O)/C(=C/Nc3ccccc3C(=O)O)C2=O)cc1,0.76
17,CCN(CC)CCCNC(=O)c1ccc2c(c1)sc1nc(-c3ccc(F)cc3)cn12,10.9
18,CC1CCc2c(sc(NC(=O)/C=C/c3ccc(F)cc3)c2C#N)C1 (centres unmarked),1.25
19,N#CCc1nc(-c2ccc(-c3ccccc3)cc2)cs1,1.7
20,CCn1cc(C2=NOC(C(=O)NCc3ccc4c(c3)OCO4)C2)c(C)n1 (centres unmarked),-4.85
21,COc1ccc(/C=C2\N=C(c3ccc(Cl)cc3Cl)OC2=O)cc1OC,-1.51
22,CN1CCN(c2ncnc3c2cnn3-c2ccc(Cl)cc2)CC1,-6.68
23,CCN1CCC(N2CCN(CCOCCO)CC2)CC1,3.48
